Experimental data reported in PubChem BioAssay AID2147 (National Center for Advancing Translational Sciences (NCATS), 2009).
The whole screen tested about 230,000 compounds, of which about 3,600 (1.6%) were called active. The inconclusive results got no clear call from the source; some entries with a clear call stand among them for comparison. Calls come from the whole dose curve; as a rule, active = well fitted inhibition curve with a large enough effect (not every such curve was filed as active); inconclusive = small, poorly fitted or top-dose-only effect, or another doubt; inactive = no such curve, though single readings can be large or run the other way. Where the call is inconclusive, the potency comes from a doubtful curve fit.

Molecular target: Lysine-specific demethylase 4E (Homo sapiens) (UniProt B2RXH2)
Assay: qHTS Assay for Inhibitors of Human Jumonji Domain Containing 2E (JMJD2E)
Settings: JMJD2E catalytic domain, FDH-coupled NADH fluorescence (FDH is formaldehyde dehydrogenase); series mostly up to 57.1 µM
Note: nearly all actives have a fitted effect of over 50% in size.
Potency is the fitted concentration of half-maximal effect; tags give direction and shape of the fitted curve.

Chain of UniProt B2RXH2 (B2RXH2 whole entry, looked up, the tested form may be a part): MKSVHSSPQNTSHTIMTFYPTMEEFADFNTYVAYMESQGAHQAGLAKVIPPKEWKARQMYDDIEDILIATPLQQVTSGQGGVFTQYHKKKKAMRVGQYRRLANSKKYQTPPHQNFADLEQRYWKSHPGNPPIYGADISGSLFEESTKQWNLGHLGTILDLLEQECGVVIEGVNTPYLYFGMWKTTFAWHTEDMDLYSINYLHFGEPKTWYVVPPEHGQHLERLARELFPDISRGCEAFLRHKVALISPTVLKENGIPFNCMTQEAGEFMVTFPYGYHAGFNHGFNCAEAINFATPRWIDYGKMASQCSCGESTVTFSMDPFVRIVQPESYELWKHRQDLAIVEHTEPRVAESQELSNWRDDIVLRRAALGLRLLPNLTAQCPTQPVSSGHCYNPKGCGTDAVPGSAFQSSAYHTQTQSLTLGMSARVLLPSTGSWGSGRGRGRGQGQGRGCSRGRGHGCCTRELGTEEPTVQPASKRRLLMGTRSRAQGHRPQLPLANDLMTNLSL

| SMILES | Potency |
| --- | --- |
| COc1ccc(C(=O)NCC(=O)OCC(=O)N2N=C(c3ccc(Cl)cc3)CC2c2ccco2)cc1OC (stereo unspecified) | inconclusive: 35.5 µM [inhibitor, single point] |
| Cc1nc(C)c(CC(=O)N/N=C/c2ccc(O)cc2)c(=O)[nH]1 | inconclusive: 39.8 µM [inhibitor, single point] |
| Cc1cccc(Nc2ccncc2S(=O)(=O)NC(=O)NC(C)C)c1 | inconclusive: 31.6 µM [inhibitor, single point] |
| O=C(CCC1CCCCC1)NC1=NCCS1 | inactive |
| C/C=C\C(=O)Nc1cccc(C2=NOC3(C2)C[C@@H](C(N)=O)N(C(=O)C2(C)CC2)C3)c1 (stereo partly specified) | inactive |
| O=C(Cn1cnc2cc([N+](=O)[O-])ccc2c1=O)NC1CCS(=O)(=O)C1 (stereo unspecified) | inconclusive: 35.5 µM [inhibitor, single point] |
| CCC(N=c1cc(-c2ccc(OC)c(OC)c2)oc2ccc(C)cc12)C(=O)O (stereo unspecified) | inconclusive: 25.1 µM [inhibitor, partial curve] |
| O=C(NNC(=O)C1CCN(Cc2cccc(F)c2)CC1)c1cccs1 | inconclusive: 39.8 µM [inhibitor, single point] |
| COc1ccc(-c2cc(C(=O)OCC(=O)N(C)C)c3ccccc3n2)cc1 | inconclusive: 25.1 µM [inhibitor, partial curve] |
| Cc1[nH]nc(-c2ccc(O)cc2O)c1-c1nc2ccccc2s1 | inconclusive: 20 µM [inhibitor, partial curve] |
| O=C(/C=C/c1ccccc1)c1ccccn1 | inconclusive: 31.6 µM [inhibitor, single point] |
| O=C(Nc1ncccc1Cl)C(Sc1ccccc1)c1ccccc1 (stereo unspecified) | inactive |
| CCCCNc1nc2ccccc2nc1Cl | inconclusive: 25.1 µM [inhibitor, partial curve] |
| COc1cc(/C=N/Nc2nn3cnnc3c3ccccc23)ccc1O | inactive |
| CC1CCc2c(sc(NC(=O)CCCn3cnc([N+](=O)[O-])n3)c2C(N)=O)C1 (stereo unspecified) | inactive |
| CCC1=C(OC(=O)N(CC)CC)N2C(=O)OC(=NCCc3c[nH]c4ccccc34)[C@]2(C)[C@H]2C1=CC[C@H]1C(=O)N(CC(=O)OC)C(=O)[C@H]12 | inactive |
| COC(=O)c1sccc1-c1ccc(C(=O)Nc2cccnc2)o1 | inconclusive: 25.1 µM [inhibitor, single point] |
| O=C(Nc1nccs1)c1sc2cc(Cl)ccc2c1Cl | inconclusive: 28.2 µM [inhibitor, partial curve] |
| CCOc1ccc(NC(=O)Nc2cnccn2)cc1 | inconclusive: 25.1 µM [inhibitor, single point] |
| OC(CNCc1ccccc1)Cn1ccc2ccccc21 (stereo unspecified) | inconclusive: 31.6 µM [inhibitor, single point] |
| COc1ccccc1-c1cncnc1NCc1cccnc1 | inactive |
| COc1ccc(-n2cc(CN(C)C3CCOCC3)c(-c3cccc(F)c3)n2)cc1 | inconclusive: 35.5 µM [inhibitor, partial curve] |
| O=C(O)c1ccc(N/N=C/c2cn(Cc3ccccc3F)c3ccccc23)cc1 | inconclusive: 3.55 µM [inhibitor, full curve] |
| COc1ccc([N+](=O)[O-])cc1/C=N/NC(=O)CNC(=O)c1cccc(F)c1 | inconclusive: 31.6 µM [inhibitor, single point] |

| SMILES | Potency |
| --- | --- |
| CCOC(=O)COc1c(Cl)cc(C2NC(=S)NC(c3ccccc3)=C2C(C)=O)cc1OCC (stereo unspecified) | inactive |
| CC(=O)c1ccccc1OCCOCCOc1ccccc1C(C)=O | inconclusive: 39.8 µM [inhibitor, single point] |
| CC(Oc1ccc(Cl)cc1)c1ccc(C#N)c(=O)[nH]1 (stereo unspecified) | inconclusive: 31.6 µM [inhibitor, partial curve] |
| C/C(=C\c1ccc(C)o1)C(=O)c1c(C)cc(C)[nH]c1=O | inactive |
| CC(C)c1ccc(OCc2ccc(C(=O)O)o2)cc1 | active: 7.94 µM |
| CCn1c(CSc2nc3ccccc3s2)nc2ccccc21 | inconclusive: 28.2 µM [inhibitor, partial curve] |
| O=C(O)CCc1nn2c3ccccc3n(CC(=O)O)c2nc1=O | inconclusive: 0.891 µM [inhibitor, single point] |
| COc1ccc(/C=C2\Cc3ccccc3C2=O)cc1OC | inconclusive: 31.6 µM [inhibitor, partial curve] |
| Fc1ccccc1-c1nc2ncccc2o1 | inconclusive: 28.2 µM [inhibitor, partial curve] |
| CC(C)Sc1nc(N2CCOCC2)c2c(c1C#N)CC(C)(C)N(C)C2 | inconclusive: 35.5 µM [inhibitor, single point] |
| Cc1ccc(NNC(=O)c2c(C)noc2C)cc1Cl | inactive |
| c1ccc(Cn2c(SCCN3CCOCC3)nnc2-c2cccnc2)cc1 | inconclusive: 22.4 µM [inhibitor, single point] |
| Cc1cccc(NC(=O)Cn2c(/C=C/c3ccccc3)nc3ccccc32)c1 | inconclusive: 28.2 µM [inhibitor, partial curve] |
| O=C(COC(=O)c1ccccc1O)NCCC1=CCCCC1 | inconclusive: 35.5 µM [inhibitor, single point] |
| COC(=O)c1ccccc1NC(=O)C1CCCN(S(C)(=O)=O)C1 (stereo unspecified) | inconclusive: 35.5 µM [inhibitor, single point] |
| Nc1cc2nn(-c3ccccc3)nc2cc1Cl | inconclusive: 14.1 µM [inhibitor, partial curve] |
| CC(=O)Nc1cccc(OCc2ccc(S(=O)(=O)Cc3ccccc3)cc2)c1 | inactive |
| COc1cc(OC)c(C2N(c3ccccn3)C(=O)C3CCCN32)cc1OC (stereo unspecified) | inconclusive: 39.8 µM [inhibitor, single point] |
| COc1cccc2c1C(CO)N1C(C#N)C3CC(C(=O)O)C(C1C2)N3C (stereo unspecified) | inactive |
| CCn1c(=O)c(C(=O)Nc2ccccc2S(N)(=O)=O)c(O)c2ccccc21 | inconclusive: 35.5 µM [inhibitor, single point] |
| CC(C)[C@@H](CC(=O)N[C@@H]1CCNC[C@H]1C(=O)N[C@H](CC(=O)N[C@@H](CCC(=O)O)CC(=O)O)Cc1ccccc1)NC(=O)C[C@H](Cc1ccccc1)NC(=O)[C@@H]1CNCC[C@H]1N | inactive |
| COc1cc(C(=O)N2CCN(c3cc(Cl)ccc3Cl)CC2)cc(OC)c1OC | inactive |
| CCN(CCO)c1ccc(NC(=S)Nc2cccc(S(=O)(=O)N(C)C)c2)cc1 | inconclusive: 4.47 µM [inhibitor, single point] |
| CCOC(=O)c1sc2nc(CC(=O)OC)nc(NCC(=O)OC)c2c1C | inconclusive: 25.1 µM [inhibitor, partial curve] |

| SMILES | Potency |
| --- | --- |
| Nc1cccc(-n2cccc2)c1 | inactive |
| O=C(c1cccs1)N1N=C(c2ccc(O)cc2)CC1c1ccccc1 (stereo unspecified) | inactive |
| Cc1ccc(NC(=O)CCC(=O)OCC(=O)c2ccc(Oc3ccc([N+](=O)[O-])cc3)cc2)cc1C | inactive |
| Cc1ccc(Cn2c(=O)c3ccccc3n3nc(C)cc23)cc1 | inconclusive: 31.6 µM [inhibitor, single point] |
| COc1ccc(-c2nc(-c3cccs3)no2)cc1 | inconclusive: 4.47 µM [inhibitor, single point] |
| COc1ccc(-c2ccc(C#N)c(SCC(=O)NC3CC3)n2)cc1OC | inconclusive: 3.55 µM [inhibitor, full curve] |
| C/C(=N/NC(=O)C1CCN(S(=O)(=O)c2ccc(C)cc2)CC1)c1cccc([N+](=O)[O-])c1 | inactive |
| COc1cc2[nH]c(=O)n(CCC(=O)NCCCN3CCN(c4ccccc4F)CC3)c(=O)c2cc1OC | inconclusive: 31.6 µM [inhibitor, single point] |
| C=CCNc1nc(Nc2ccc(-c3nc4ccccc4o3)cc2)nc(N2CCOCC2)n1 | inconclusive: 3.55 µM [inhibitor, full curve] |
| CC(Oc1ccc(Cl)cc1Cl)C(=O)NCc1ccncc1 (stereo unspecified) | inconclusive: 28.2 µM [inhibitor, single point] |
| c1ccc2c(c1)oc1c(Nc3ccc4c(c3)OCCO4)ncnc12 | inconclusive: 39.8 µM [inhibitor, single point] |
| CNc1nc(-c2ccc(N(C)C)cc2)nc2ccccc12 | inconclusive: 28.2 µM [inhibitor, partial curve] |
| COc1ccc(C2=CC(=O)C=CC2=O)cc1 | active: 14.1 µM |
| CCOC(=O)N1CCC(NC(=O)Cn2c3c(c(-c4ccccc4Cl)cc2=O)CCC3)CC1 | inconclusive: 31.6 µM [inhibitor, partial curve] |
| Cc1cc(C(=O)NCc2ccco2)cs1 | inactive |
| COc1ccc(-n2cc(CNC3CCC(O)CC3)c(-c3cccc(F)c3)n2)cc1 (stereo unspecified) | inconclusive: 31.6 µM [inhibitor, single point] |
| Cc1cc2cc(CNC(=O)c3ccco3)ccc2n1C | inactive |
| Cc1c(NC(=O)c2cccc(-c3cc4ccccc4oc3=O)c2)cccc1-c1nc2ncccc2o1 | inconclusive: 22.4 µM [inhibitor, partial curve] |
| CCC1CCCN1Cn1cnc2c([nH]c3ccc(Cl)cc32)c1=O (stereo unspecified) | inconclusive: 39.8 µM [inhibitor, single point] |
| C=CCn1c(CCSCc2ccccc2)n[nH]c1=S | inactive |
| CCOC(=O)COc1ccc2c(c1)C(=O)CC1(CCN(C(C)=O)CC1)O2 | inconclusive: 28.2 µM [inhibitor, partial curve] |
| CCOC(=O)C1=C(C)NC(C)=C(C(=O)OC)C1c1ccco1 (stereo unspecified) | inconclusive: 39.8 µM [inhibitor, single point] |
| CC(C)OC(=O)c1cc2c(=O)[nH]c(C(Cl)(Cl)Cl)nc2o1 | inconclusive: 28.2 µM [inhibitor, partial curve] |
